Patent publication US20020164333A1, “Bifunctional molecules and vectors complexed therewith for targeted gene delivery” (The Scripps Research Institute, priority 2000, published 2002)

B1: D: penton base monoclonal antibody which recognizes the integrin binding site on adenovirus particle types 2/5; control antibody (antibody)
heavy: EVQLQQSGPELVKPGASVKISCKASGYTFTDYNMHWVKQSHGKSLEWIGYIYPYKGGTGYNQKFKSKATLTTDSSSNTAYMELRSLTSDASAVYYCARGIAYWGQGTLVTVSAAKTTPPSVYPLAPGSAAQTNSMVTLGCLVKGYFPEPVTVTWNSGSLSSGVHTFPAVLQSDLYTLSSSVTVPSSTWPSETVTCNVAHPASSTKVDKKIVPRDCGCKPCICTVPEVSSVFIFPPKPKDVLTITLTPKVTCVVVDISKDDPEVQFSWFVDDVEVHTAQTQPREEQFNSTFRSVSELPIMHQDWLNGKEFKCRVNSAAFPAPIEKTISKTKGRPKAPQVYTIPPPKEQMAKDKVSLTCMITDFFPEDITVEWQWNGQPAENYKNTQPIMDTDGSYFVYSKLNVQKSNWEAGNTFICSVLHEGLHNHHTEKSLSHSPGK
light: DIVLTQSPASLAVSLGQRATISCKASQSVDYDGDSYMNWYQQKPGQPPKLLIYAASNLESGIPARFSGSGSGTDFTLNIHPVEEEDAATYYCQQTNEDPWTFGGGTKLEIKRADAAPTVSIFPPSSEQLTSGGASVVCFLNNFYPKDINVKWKIDGSERQNGVLNSWTDQDSKDSTYSMSSTLTLTKDEYERHNSYTCEATHKTSTSPIVKSFNRNEC
B2: DT: DAV-1 fused to TNF-α; heavy chain fusion SEQ ID NO. 11 co-expressed with DAV-1 light chain (antibody)
heavy: EVQLQQSGPELVKPGASVKISCKASGYTFTDYNMHWVKQSHGKSLEWIGYIYPYKGGTGYNQKFKSKATLTTDSSSNTAYMELRSLTSDASAVYYCARGIAYWGQGTLVTVSAAKTTPPSVYPLAPGSAAQTNSMVTLGCLVKGYFPEPVTVTWNSGSLSSGVHTFPAVLQSDLYTLSSSVTVPSSTWPSETVTCNVAHPASSTKVDKKIVPRDCGCKPCICTVPEVSSVFIFPPKPKDVLTITLTPKVTCVVVDISKDDPEVQFSWFVDDVEVHTAQTQPREEQFNSTFRSVSELPIMHQDWLNGKEFKCRVNSAAFPAPIEKTISKTKGRPKAPQVYTIPPPKEQMAKDKVSLTCMITDFFPEDITVEWQWNGQPAENYKNTQPIMDTDGSYFVYSKLNVQKSNWEAGNTFICSVLHEF[skipping about 150 residues]
light: DIVLTQSPASLAVSLGQRATISCKASQSVDYDGDSYMNWYQQKPGQPPKLLIYAASNLESGIPARFSGSGSGTDFTLNIHPVEEEDAATYYCQQTNEDPWTFGGGTKLEIKRADAAPTVSIFPPSSEQLTSGGASVVCFLNNFYPKDINVKWKIDGSERQNGVLNSWTDQDSKDSTYSMSSTLTLTKDEYERHNSYTCEATHKTSTSPIVKSFNRNEC
notes: DAV-1 fused to TNF-α; 11 co-expressed with DAV-1 light chain

How the values were obtained:
[1] = biological target: T1, penton base (Human adenovirus C serotype 2, UniProt P03276); settings: cited from earlier work
T1 construct: made in house; host or cells: Trichoplusia Tn 5B1-4 insect cells, baculovirus vector pBlueBac

[2] = system: M21-L12 human melanoma cells; experiment: Ad-mediated gene delivery and expression assay (β-galactosidase staining); format: cell-based; settings: for cells stained positive for β-galactosidase: Ad RSV-LacZ vector preincubated with antibody at 2 antibody molecules per RGD motif, M21-L12 cells, 48 hrs post-infection
[3] = system: Ad2; settings: cited from earlier work
[4] = system: MCF-7; experiment: Cytotoxicity against TNF-sensitive cell line; format: cell-based; settings: TNF-α sensitive cell line MCF-7
[5] = system: Ad particles; experiment: ELISA on immobilized Ad particles; format: binding, adenovirus
[6] = system: M21-L12 cells; experiment: Adenovirus internalization assay (resistance to trypsin digestion); format: cell-based, human; settings: 125I-labeled virus
[7] = system: SW480 epithelial cells; experiment: Gene delivery by fiberless adenovirus complexed with bifunctional molecules (β-gal staining); format: cell-based, human; settings: fiberless adenovirus particles complexed with the molecule, 48 post infection
[8] = biological target: T1, penton base; experiment: ELISA on immobilized penton base; format: binding, Ad2

T1 sequence (P03276 whole entry): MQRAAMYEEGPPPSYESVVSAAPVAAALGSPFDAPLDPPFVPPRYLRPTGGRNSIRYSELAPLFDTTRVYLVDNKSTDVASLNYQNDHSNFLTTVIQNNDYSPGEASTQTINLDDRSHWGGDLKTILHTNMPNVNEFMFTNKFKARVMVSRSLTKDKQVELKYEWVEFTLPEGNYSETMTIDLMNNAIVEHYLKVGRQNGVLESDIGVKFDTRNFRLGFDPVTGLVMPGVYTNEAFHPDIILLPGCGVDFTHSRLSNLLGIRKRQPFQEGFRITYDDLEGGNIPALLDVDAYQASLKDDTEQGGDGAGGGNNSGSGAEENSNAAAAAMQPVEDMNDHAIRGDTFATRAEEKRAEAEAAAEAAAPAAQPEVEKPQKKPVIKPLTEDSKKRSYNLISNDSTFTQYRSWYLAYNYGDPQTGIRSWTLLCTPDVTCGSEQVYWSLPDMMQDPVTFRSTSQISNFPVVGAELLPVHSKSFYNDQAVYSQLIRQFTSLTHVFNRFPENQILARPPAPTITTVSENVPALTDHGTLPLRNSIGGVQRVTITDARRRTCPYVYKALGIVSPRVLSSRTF

Molecule	affinity for penton base [1]	cells stained positive for β-galactosidase [2]	inhibition of virus infection [3]	cytotoxicity [4]	binding to immobilized Ad particles [5]	enhancement of Ad-mediated gene delivery ([2]; Ad vector complexed with the molecule, M21-L12 melanoma cells lacking αv integrins)	increase in gene delivery when DT is added after infection ([2]; M21-L12 cells infected with adenovirus alone for three hours, then DT added, 48 hours post-infection)	adenovirus internalization [6]	increased gene delivery compared to the uncomplexed fiberless particles [7]	binding to immobilized penton base [8]
B1	high affinity	less than 3%	does not inhibit virus infection							
B2		Approximately 60%		elicited cytotoxicity	capable of binding	approximately 30 fold	very little increase	significantly increased the rate and extent of adenovirus internalization	10-15 fold	capable of binding
